Measured values from patent US20240150432A1 (SHANGHAI CELGEN BIO PHARMACEUTICAL, published 2024).

Legend:
[1] = target: T1, Recombinant human TNFα (human, UniProt P01375 fragment); assay: cell-based or functional assay
[2] = target: T1, Recombinant human TNFα; assay: ELISA, TNFα coated, fusion protein titrated, anti-human IgG Fc detection
Protocol: Recombinant human TNFα (Novoprotein) was dissolved in PBS (pH 7.4) to a final concentration of 0.8 μg/mL and added with 50 μL/well recombinant protein in a 96 well ELISA plate, and stored overnight in a refrigerator at 4° C. The next day, ELISA plates were washed three times with PBST (PBS containing 0.05% Tween-20), and 100 μL/well of blocking solution of PBST containing 3% BSA was added. ELISA plates were placed in an incubator at 37° C. for 1 hour. The fusion proteins were diluted in the binding solution of PBST containing 1% BSA to prepare three-fold serial dilutions. The blocking solution was removed and diluted proteins were added at 50 μL/well, respectively. The reaction was carried out for 1 hour at 37° C. The solution was poured off, and the ELISA plate was washed three times with PBST. Then 50 μL/well of secondary antibody (alkaline phosphatase-conjugated sheep-anti-human IgG Fc antibody, Jackson ImmunoResearch Lab) was added and the reaction was performed in a 37° C. incubator for 1 hour. The chromogenic antibody was poured out, and 200 μL/well PBST cleaning solution was added to the ELISA plate. The ELISA plate was placed on a horizontal shaker for 5 minutes at 100 RPM, the cleaning solution was poured out, and the cleaning was repeated for 4 times. […] An enzyme-linked immunosorbent assay was used to read the plate at a wavelength of 405 nm/490 nm.

T1 sequence (P01375 77-233 limits assumed): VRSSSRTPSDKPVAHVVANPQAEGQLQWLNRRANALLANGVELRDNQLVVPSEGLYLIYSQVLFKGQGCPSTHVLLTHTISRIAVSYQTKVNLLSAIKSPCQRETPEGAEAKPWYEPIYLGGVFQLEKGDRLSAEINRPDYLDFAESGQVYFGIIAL

B1: TNFR2-BCMA-Fc fusion protein (Fc fusion)
chain: LPAQVAFTPYAPEPGSTCRLREYYDQTAQMCCSKCSPGQHAKVFCTKTSDTVCDSCEDSTYTQLWNWVPECLSCGSRCSSDQVETQACTREQNRICTCRPGWYCALSKQEGCRLCAPLRKCRPGFGVARPGTETSDVVCKPCAPGTFSNTTSSTDICRPHQICNVVAIPGNASMDAVCTSTSPTRSMAPGAVHLPQPVSTRSQHTQPTPEPSTAPSTSFLLPMGPSPPAEGSTGDGQCSQNEYFDSLLHACIPCQLRCSSNTPPLTCQRYCNASVTNSVKGTNA[human IgG1 Fc not given here]
- EC50 against TNFα-induced apoptosis in L929 cells [1]: 0.027 µg/mL
- EC50 [2]: 0.046 µg/mL

B2: TNFR2-TACI-Fc fusion protein (Fc fusion)
chain: LPAQVAFTPYAPEPGSTCRLREYYDQTAQMCCSKCSPGQHAKVFCTKTSDTVCDSCEDSTYTQLWNWVPECLSCGSRCSSDQVETQACTREQNRICTCRPGWYCALSKQEGCRLCAPLRKCRPGFGVARPGTETSDVVCKPCAPGTFSNTTSSTDICRPHQICNVVAIPGNASMDAVCTSTSPTRSMAPGAVHLPQPVSTRSQHTQPTPEPSTAPSTSFLLPMGPSPPAEGSTGDSLSCRKEQGKFYDHLLRDCISCASICGQHPKQCAYFCENKLR[human IgG1 Fc not given here]
- EC50 against TNFα-induced apoptosis in L929 cells [1]: 0.023 µg/mL

B3: TNFR2-BAFFR-Fc fusion protein (Fc fusion)
chain: LPAQVAFTPYAPEPGSTCRLREYYDQTAQMCCSKCSPGQHAKVFCTKTSDTVCDSCEDSTYTQLWNWVPECLSCGSRCSSDQVETQACTREQNRICTCRPGWYCALSKQEGCRLCAPLRKCRPGFGVARPGTETSDVVCKPCAPGTFSNTTSSTDICRPHQICNVVAIPGNASMDAVCTSTSPTRSMAPGAVHLPQPVSTRSQHTQPTPEPSTAPSTSFLLPMGPSPPAEGSTGDDAPAPTPCVPAECFDLLVRHCVACGLLRTPRPKPA[human IgG1 Fc not given here]
- EC50 [2]: 0.189 µg/mL
